Laboratory results taken from a collection of fitness landscapes (doi:10.1126/science.1257360).
The list shows a part of the results.

B1: PhoQ; a variant is named by its letters at X, in order, P23837 (parent)
chain: MKKLLRLFFPLSLRVRFLLATAAVVLVLSLAYGMVALIGYSVSFDKTTFRLLRGESNLFYTLAKWENNKLHVELPENIDKQSPTMTLIYDENGQLLWAQRDVPWLMKMIQPDWLKSNGFHEIEADVNDTSLLLSGDHSIQQQLQEVREDDDDAEMTHSVAVNVYPATSRMPKLTIVVVDTIPVELKSSYMVWSWFIYVLSANLLLVIPLLWVAAWWSLRPIEALAKEVRELEEHNRELLNPATTRELTSLVRNLNRLLKSERERYDKYRTTLTDLTHSLKTPLXXLQXXLRSLRSEKMSVSDAEPVMLEQISRISQQIGYYLHRASMRGGTLLSRELHPVAPLLDNLTSALNKVYQRKGVNISLDISPEISFVGEQNDFVEVMGNVLDNACKYCLEFVEISARQTDEHLYIVVEDDGPGIPLSKREVIFDRGQRVDTLRPGQGVGLAVAREITEQYEGKIVAGESMLGGARMEVIFGRQHSAPKDE

Variants of: B1
Test: enrichment ratio after two sorts for PhoP signalling (ratio (wild type AVST 3.29)); higher = more functional
Details: with PhoP (E. coli)

Variant | enrichment ratio
YTYI | ≤ 0.25
PEFN | ≤ 0.25
AYYP | ≤ 0.25
WMRM | ≤ 0.25
PGQF | ≤ 0.25
EEVT | ≤ 0.25
SDYV | ≤ 0.25
MQRV | ≤ 0.25
SDAD | ≤ 0.25
YTLT | ≤ 0.25
QSRE | ≤ 0.25
EAPG | ≤ 0.25
HKWK | ≤ 0.25
MLTM | 4.75
KCSE | ≤ 0.25
QRIM | ≤ 0.25
NTHV | ≤ 0.25
RIKL | ≤ 0.25
WSRF | ≤ 0.25
IEMH | ≤ 0.25
WEPG | ≤ 0.25
QLFF | ≤ 0.25
MPPS | ≤ 0.25
IPRY | ≤ 0.25
HEVC | ≤ 0.25

Variant | enrichment ratio
VGRN | ≤ 0.25
IMVK | ≤ 0.25
LFCD | ≤ 0.25
AMAP | 0.595
VNNV | ≤ 0.25
GGSG | ≤ 0.25
HRVS | ≤ 0.25
RSLQ | ≤ 0.25
LQVE | ≤ 0.25
TEGD | ≤ 0.25
SKHH | ≤ 0.25
FHEG | ≤ 0.25
NFYS | ≤ 0.25
GPKF | ≤ 0.25
QPNY | ≤ 0.25
PAGD | ≤ 0.25
VVWR | ≤ 0.25
DCIK | ≤ 0.25
MFHV | ≤ 0.25
QTLK | ≤ 0.25
LMWS | ≤ 0.25
SAGV | 7.24
LGEE | ≤ 0.25
TMWI | ≤ 0.25
RSNV | ≤ 0.25

Variant | enrichment ratio
ITPE | ≤ 0.25
WVSQ | ≤ 0.25
VFMY | ≤ 0.25
RQLT | ≤ 0.25
MSAF | 3.4
HGNG | ≤ 0.25
TMCA | 8.5
RAYF | ≤ 0.25
ENAL | ≤ 0.25
VRTG | ≤ 0.25
LSTT | ≤ 0.25
PFMN | ≤ 0.25
ADLR | 2.2
TDTM | ≤ 0.25
VVSD | ≤ 0.25
AGAG | ≤ 0.25
VYYR | ≤ 0.25
EDST | ≤ 0.25
RFVQ | ≤ 0.25
SDDA | ≤ 0.25
ISEC | ≤ 0.25
PWMS | ≤ 0.25
NVVK | ≤ 0.25
KIIW | ≤ 0.25
YGEV | ≤ 0.25

Variant | enrichment ratio
ADIR | 4.04
MMYL | 3.03
EWVG | ≤ 0.25
YELR | ≤ 0.25
VQEC | ≤ 0.25
DNWR | ≤ 0.25
KLDG | ≤ 0.25
IILF | ≤ 0.25
FADQ | ≤ 0.25
GQCM | 1.51
ASCI | 19.9
PAGS | ≤ 0.25
KCVE | ≤ 0.25
LGEF | ≤ 0.25
GRLH | ≤ 0.25
FNPW | ≤ 0.25
TLST | 7.45
DIAM | ≤ 0.25
WYAP | ≤ 0.25
YDHL | ≤ 0.25
SRES | ≤ 0.25
GKLM | 12.5
LLRI | ≤ 0.25
IRTY | ≤ 0.25
YWEY | ≤ 0.25

Variant | enrichment ratio
THVY | 0.941
SFYQ | ≤ 0.25
FSGV | ≤ 0.25
ELKW | ≤ 0.25
QNWD | ≤ 0.25
MCIP | ≤ 0.25
VLWM | ≤ 0.25
YCRS | ≤ 0.25
HQSS | ≤ 0.25
HSCG | ≤ 0.25
MLCG | ≤ 0.25
VYCM | ≤ 0.25
PNCY | ≤ 0.25
GYLK | ≤ 0.25
YQPR | ≤ 0.25
MWDI | ≤ 0.25
TYSH | 1.78
PKGR | ≤ 0.25
KTPN | ≤ 0.25
QENC | ≤ 0.25
TNCF | ≤ 0.25
SYPS | ≤ 0.25
YGIR | ≤ 0.25
REYS | ≤ 0.25
AHFA | ≤ 0.25

Variant | enrichment ratio
RWST | ≤ 0.25
PDCG | ≤ 0.25
INQI | ≤ 0.25
EFRE | ≤ 0.25
VGTQ | ≤ 0.25
LGIQ | ≤ 0.25
AHIR | ≤ 0.25
REWH | ≤ 0.25
DFKQ | ≤ 0.25
VQGP | ≤ 0.25
HWQT | ≤ 0.25
VYFN | ≤ 0.25
VRTT | ≤ 0.25
LKYM | ≤ 0.25
SKTS | 3.33
YGYI | ≤ 0.25
TTWC | 1.31
IFLQ | ≤ 0.25
ISHY | ≤ 0.25
AVRS | ≤ 0.25
FVHQ | ≤ 0.25
NVPN | ≤ 0.25
AAGR | ≤ 0.25
NYDG | ≤ 0.25
FAPC | ≤ 0.25

Variant | enrichment ratio
YAGL | ≤ 0.25
IMQF | ≤ 0.25
DPTK | ≤ 0.25
MYGP | ≤ 0.25
NHQM | ≤ 0.25
LRPR | ≤ 0.25
VWSM | ≤ 0.25
VCTV | 1.45
ALAC | 0.412
DHDD | ≤ 0.25
MMID | ≤ 0.25
GPVV | ≤ 0.25
MWVL | ≤ 0.25
AIYA | 0.272
TKRH | ≤ 0.25
CRKS | ≤ 0.25
LKMI | ≤ 0.25
EFDF | ≤ 0.25
QHPI | ≤ 0.25
SHQL | ≤ 0.25
GIIC | 0.274
IYEN | ≤ 0.25
LPCL | ≤ 0.25
MAYQ | 9.57
RDYR | ≤ 0.25

Variant | enrichment ratio
IYME | ≤ 0.25
PHDA | ≤ 0.25
YKWT | ≤ 0.25
IHDS | ≤ 0.25
FSIP | ≤ 0.25
GMLK | ≤ 0.25
MVPI | ≤ 0.25
NWPN | ≤ 0.25
TKVC | 5.4
MTYG | 6.7
MHKE | ≤ 0.25
PQRA | ≤ 0.25
SHRY | ≤ 0.25
KNGF | ≤ 0.25
QAAY | ≤ 0.25
IKWQ | ≤ 0.25
GFWE | ≤ 0.25
SLFE | ≤ 0.25
KEFN | ≤ 0.25
HHYI | ≤ 0.25
